Data set [1] is described as follows: Circular dichroism (CD) spectroscopy analysis, melting temperature and refolding. Type of data set: physicochemical. As to conditions: His6-tagged Z variants, CD variable temperature measurement, Table 21. For orientation: Circular dichroism is widely used to follow secondary structure.
Data set [2] addresses T1, hIL-1R-I (Homo sapiens, UniProt P14778).
T1 construct: purchased R&D Systems 269-1R/CF
T1 sequence (P14778 18-569): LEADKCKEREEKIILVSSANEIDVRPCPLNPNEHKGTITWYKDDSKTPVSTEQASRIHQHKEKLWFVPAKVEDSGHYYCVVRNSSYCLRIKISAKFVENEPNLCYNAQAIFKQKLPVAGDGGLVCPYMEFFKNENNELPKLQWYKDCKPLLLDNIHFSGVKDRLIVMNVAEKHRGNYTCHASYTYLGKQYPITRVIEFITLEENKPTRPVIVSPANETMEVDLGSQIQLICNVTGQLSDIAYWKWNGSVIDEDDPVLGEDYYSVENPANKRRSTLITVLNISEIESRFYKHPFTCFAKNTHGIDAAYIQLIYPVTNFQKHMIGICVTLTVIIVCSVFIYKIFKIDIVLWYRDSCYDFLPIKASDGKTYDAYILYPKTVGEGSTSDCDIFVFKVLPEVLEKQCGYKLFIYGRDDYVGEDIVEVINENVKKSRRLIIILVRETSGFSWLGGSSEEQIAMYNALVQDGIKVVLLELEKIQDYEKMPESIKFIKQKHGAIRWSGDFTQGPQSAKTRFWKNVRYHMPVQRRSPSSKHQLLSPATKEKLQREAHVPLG
In words: Biacore affinity/kinetic analysis of His6-tagged Z variants, human IL-1R-I. As to conditions: His6-Z polypeptides binding to human IL-1R-I, Biacore, Table 19. It is filed as binding. For orientation: SPR reads the build-up and loss of mass on a sensor chip optically.

In data set [3] the target is T1, hIL-1R-I. The experiment in a line: Biacore kinetic screening of Z-ABD periplasmic extracts captured on anti-ABD antibody. It is filed as binding. As to conditions: differs only in position X5 of BM (isoleucine vs alanine) (Example 8). The procedure:
The binding of Z variants to human IL-1R-I was analyzed in a kinetic screening using a Biacore T200 instrument. A polyclonal goat anti-ABD antibody (goat anti-ABD) was immobilized on CM5 chip surfaces basically as described for other proteins in Example 2. For the kinetic screening, analytes were injected in two steps. First, a Z-ABD (ABD001, SEQ ID NO:1660) periplasmic extract was injected over the surface at 5 μl/min for 1 min. As a second step, 100 nM hIL-1R-I was injected at 30 μl/min for 2 min, followed by 2 min of dissociation in running buffer HBS-EP. Glycine-HCl pH 2.0 (cat. no. BR100355, GE Healthcare) was used for regeneration of the antibody surfaces between the cycles. The temperature of the assay was 25° C. Before performing the kinetic analyses, the signal from 100 nM hIL-1R-I injected over a reference surface containing goat anti-ABD but no Z-ABD sample was subtracted from the sensorgram of Z-ABD binding to hIL-1R-I. Rough screening affinities (KD) were calculated from the reference subtracted 100 nM hIL-1R-I response using a 1:1 binding model of the BiaEvaluation software 4.1 (GE Healthcare). […]
The binding of Z variants to human IL-1R-I was analyzed in a kinetic screening, using a Biacore 2000 instrument, essentially as described in Example 4, but with the exception that Z-ABD (ABD001, SEQ ID NO:1660) periplasmic extracts were injected during 2 min. […]

B1: Z18814: Z variant differing from Z16065 only in position X5 of the BM (isoleucine) (protein)
chain: AQHDEALEVDAKYAKEVEEIQMEIFALPNLTRRQYTAFIRKLLDDPSQSSELLSEAKKLNDSQAPKVDYVLAEAKVLANRELDKYGVSDYYKNLINNAKTVEGVKALIDEILAALPYVPG
As a reminder, the koff is the rate constant with which the complex falls apart. By kon is commonly meant the second-order rate constant of association. The term Kd denotes the free concentration of one partner at which half of the binding sites on the other are occupied at equilibrium, for simple one-to-one binding. B1: in data set [1], the “Melting temperatures (Tm)” value was 61 °C. Besides, in data set [2], the koff was determined as 0.0044 s⁻¹ and the kon worked out at 3e+07 M⁻¹ s⁻¹. Further, in data set [2] (read-out: KD), the Kd came out at 0.15 nM. For the same molecule, the “affinity relative to Z16065” value in data set [3] was “three times higher affinity”.

The values are drawn from patent US12116397B2, “IL-IR-I binding polypeptide” (Swedish Orphan Biovitrum AB (publ), priority 2017, dated 2024).
